The list shows a part of the results. The data describe in vitro nicking of single-stranded DNA by Rep domains at 3 µM enzyme and 37 °C for 1 h; the strands have 90 letters, of which the middle is given. Uncut reads are compared with the no-enzyme pool on a log2 scale; uncut sequences lie near 0, cut ones below; no hit call is given. The scaling is to total reads; where an enzyme cuts many sequences, the uncut ones exceed 0.
Columns and labels:
Test in all cases: uncleaved DNA left, log2 of reads against the no-enzyme library (log2 ratio); higher = less cleavage (more negative = more Rep cleavage of the k-mer); sequences stand for … in CTCGTCCG…ACCGGAGA
[1] = system: T1, Rep nickase domain of Muscovy duck circovirus
T1 sequence (residues 1-111 of Rep, tag left off): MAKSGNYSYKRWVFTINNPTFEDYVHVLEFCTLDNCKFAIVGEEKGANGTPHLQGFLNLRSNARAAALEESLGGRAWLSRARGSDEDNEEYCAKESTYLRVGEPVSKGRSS
Experimental: (§1)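 A pool of 90-nt single-stranded DNAs with seven random bases just before the constant AC of the nick site (name = the seven bases) was cut by 3 µM recombinant His6-SUMO-tagged Rep nickase domain (300 nM DNA, 50 mM HEPES pH 8.0, 50 mM NaCl, 1 mM MnCl2, 1 h, 37 °C, three replicates). Uncut DNA was amplified and sequenced.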

[2] = system: T2, Rep nickase domain of banana bunchy top virus
T2 sequence (residues 1-94 of Rep, tag left off): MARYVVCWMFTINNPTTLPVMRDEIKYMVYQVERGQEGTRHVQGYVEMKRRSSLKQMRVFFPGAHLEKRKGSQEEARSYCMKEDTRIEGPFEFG
Experimental: as §1

[3] = system: T3, Rep nickase domain of cabbage leaf curl virus
T3 sequence (residues 1-116 of Rep, tag left off): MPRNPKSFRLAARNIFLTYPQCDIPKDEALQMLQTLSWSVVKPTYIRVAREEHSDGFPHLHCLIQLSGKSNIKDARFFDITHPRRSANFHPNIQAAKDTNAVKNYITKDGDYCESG
Experimental: as §1

[4] = system: T4, Rep nickase domain of chickpea chlorotic dwarf virus
T4 sequence (residues 1-124 of Rep, tag left off): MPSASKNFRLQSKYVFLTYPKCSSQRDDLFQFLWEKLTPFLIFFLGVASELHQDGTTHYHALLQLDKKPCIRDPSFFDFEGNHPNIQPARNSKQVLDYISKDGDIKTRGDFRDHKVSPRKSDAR
Experimental: as §1

[5] = system: T5, Rep nickase domain of faba bean necrotic yellows virus
T5 sequence (residues 1-98 of Rep, tag left off): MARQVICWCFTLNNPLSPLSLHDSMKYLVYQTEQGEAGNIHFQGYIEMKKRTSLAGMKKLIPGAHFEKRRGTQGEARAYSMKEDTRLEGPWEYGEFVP
Experimental: as §1

[6] = system: T6, Rep nickase domain of maize striate mosaic virus
T6 sequence (residues 1-117 of Rep, tag left off): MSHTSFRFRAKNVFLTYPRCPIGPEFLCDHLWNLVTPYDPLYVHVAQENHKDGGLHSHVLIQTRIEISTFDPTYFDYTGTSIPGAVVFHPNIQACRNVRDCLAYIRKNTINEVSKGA
Experimental: as §1

[7] = system: T7, Rep nickase domain of porcine circovirus 2
T7 sequence (residues 2-116 of Rep, tag left off): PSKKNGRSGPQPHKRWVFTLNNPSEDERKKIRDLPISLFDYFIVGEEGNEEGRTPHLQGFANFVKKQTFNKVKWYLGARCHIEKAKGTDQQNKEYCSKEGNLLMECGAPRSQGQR
Experimental: as §1

[8] = system: T8, Rep nickase domain of tomato yellow leaf curl virus
T8 sequence (residues 1-136 of Rep, tag left off): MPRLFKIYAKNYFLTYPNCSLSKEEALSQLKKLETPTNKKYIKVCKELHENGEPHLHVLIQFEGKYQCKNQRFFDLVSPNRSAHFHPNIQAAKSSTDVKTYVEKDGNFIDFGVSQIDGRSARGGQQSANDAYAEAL
Experimental: as §1

[9] = system: T9, Rep nickase domain of wheat dwarf virus
T9 sequence (residues 1-137 of Rep, tag left off): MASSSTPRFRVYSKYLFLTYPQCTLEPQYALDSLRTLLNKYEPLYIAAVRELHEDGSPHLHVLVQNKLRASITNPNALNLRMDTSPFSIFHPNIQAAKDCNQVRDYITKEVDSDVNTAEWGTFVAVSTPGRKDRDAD
Experimental: as §1

Sequence	uncleaved DNA left (log2) [1]	uncleaved DNA left (log2) [2]	uncleaved DNA left (log2) [3]	uncleaved DNA left (log2) [4]	uncleaved DNA left (log2) [5]	uncleaved DNA left (log2) [6]	uncleaved DNA left (log2) [7]	uncleaved DNA left (log2) [8]	uncleaved DNA left (log2) [9]
GCATGCA	0.0796	-0.0436	-0.524	-0.529	0.0952	-1	0.0283	0.141	-0.0487
CCCAACC	-0.234	-0.00923	-0.207	-1.42	0.00755	-0.727	-0.8	-0.072	-0.11
TACACGA	-0.0347	-0.0292	-0.385	-0.869	0.055	-1.13	0.11	-0.0278	-0.0417
CACGAAA	-0.00774	0.0881	0.0145	-0.456	0.173	-0.808	-0.0665	0.026	0.093
GATGTCC	-0.136	-0.0021	0.127	0.406	-0.142	0.715	-0.162	-0.0376	-0.0402
CGACTAT	0.0688	0.0928	0.05	0.574	0.0655	1.36	-0.00649	0.137	0.229
GTGTGCG	-0.0498	-0.0199	-0.496	0.817	-0.0692	0.0649	0.171	-0.124	-0.0872
ACGCTCG	-0.0375	0.196	-0.707	-0.0266	0.0237	-0.777	0.171	-0.0491	0.0154
ACTGATG	-0.0142	-0.0684	-0.455	-0.126	0.00808	-0.885	0.0574	0.157	-0.0158
CGAGAAC	0.012	-0.0888	0.0614	0.13	-0.0129	0.00677	-0.156	0.000765	0.00622
GGATGGA	0.00951	-0.0149	0.565	1.09	0.00669	1.6	0.106	-0.0887	-0.0203
CAATCGA	0.0426	0.109	-0.768	-0.955	0.0122	-1.16	0.201	0.0475	0.0505
TTACTAA	0.074	-0.0486	0.0365	-1.42	0.0834	-0.0887	-0.0303	0.0596	0.0262
AACCGGT	-0.213	-0.219	0.104	0.434	-0.18	0.865	-0.161	-0.269	-0.0425
GCAACTT	0.0497	0.105	0.0984	-1.33	0.145	0.337	-0.0275	0.000317	0.194
AGATTAC	0.0542	-0.0825	-0.0905	-1.55	0.102	-0.491	0.0375	-0.0485	0.0101
TTCCCTT	-0.105	-0.0292	0.238	-1.59	0.0223	0.00377	-0.64	0.12	-0.0201
GATTACT	-3.14	-2.91	-0.446	-2.52	-1.4	0.474	-3.11	0.0731	-0.111
GGATACT	-1.25	-0.0236	0.448	0.85	0.00172	1.63	-2.54	0.00434	0.102
GTTGACA	0.182	0.113	0.373	1.14	0.0196	1.86	0.152	0.164	0.199
AGCGACC	-0.0396	0.0049	-0.0542	0.65	0.015	1.01	0.0101	-0.0328	-0.0185
CCCAGCC	-0.0661	-0.159	-0.186	-0.386	-0.0272	-0.952	0.0622	-0.153	-0.0454
CGAGCGT	-0.00258	0.0822	-0.0284	0.186	0.0588	-0.177	0.105	0.0485	0.0166
CAAAGAG	0.216	0.303	-0.478	-0.619	0.183	-0.941	0.366	0.252	0.124
CGCTGTA	-0.0383	-0.0125	-0.0851	0.142	-0.129	0.69	-0.247	-0.185	0.0913
TCAACCC	-0.432	-0.000114	0.0879	-1.73	-0.0489	-0.339	-1.16	-0.075	0.0623
CTGGGTG	0.0289	-0.0636	-0.341	-0.471	0.082	-0.726	0.0738	0.0121	-0.068
GCGAGTA	-0.00805	-0.0844	-0.00219	0.375	0.0296	1.08	-0.143	-0.1	-0.0888
AGGTACT	-1.63	-0.264	0.00215	-0.608	-0.282	1.04	-3.26	0.124	0.0185
GACCGCG	-0.0215	-0.0118	-0.551	0.734	-0.00753	-0.142	-0.0423	0.0596	-0.0598

Reference: the supplement of paper PMC7826260
